Over roughly 33,000 sequences, “E-score (-0.5 to 0.5)” has its median near -0.054; the highest 2% begin near 0.39. This is one part of the list.
These sequences were tested against Ylr278c (UniProt Q05854) (assay: PBM E-score (8-mer binding enrichment) (E-score (-0.5 to 0.5)); higher = stronger / more preferred TF binding; most listed sequences are background and not binding sites). Details: protein concentration: 200 nM; construct: GST-DNA-binding domain.
Method: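 Universal 'all 10-mer' protein binding microarrays (Agilent AMADID 015681) probed with GST-tagged S. cerevisiae TFs (full-length or DBD) made by in vitro transcription/translation (PURExpress), about 100-200 nM. Bound TF was detected with fluorescent anti-GST. Each ungapped 8-mer (which stands for itself and its reverse complement) is scored by the PBM enrichment score (E-score), a modified Wilcoxon-Mann-Whitney statistic from -0.5 to +0.5, computed with the Universal PBM Analysis Suite. Scale: above 0.35 generally sequence-specific binding.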

Sequence	PBM E-score
CGCTCACC	0.0135
GCGAGCCC	0.109
AATAGTCG	-0.0923
CGGTAACA	0.205
CCTAGATA	-0.328
GCCCGTGA	0.103
CTGTAGGA	-0.00233
AAGAGGCG	-0.143
AGAGCCAC	-0.191
AAGCACTT	-0.113
GCCTAGCC	0.0257
CGTGACCA	-0.0799
AGCTCATA	0.00205
ACACAACT	-0.0696
AGCATTGA	-0.293
TTCGTAAA	-0.164
AGGGAGCA	-0.163
AGTGCGCG	0.15
GTGATCAA	-0.156
CTAATGAG	-0.209
ATGTTACC	0.00456
CCGCACGA	0.0964

Sequence	PBM E-score
ATAGCACG	-0.0307
CCCATGAC	-0.106
AAGGTATT	0.0675
AAAACGTT	-0.0478
ACCGGATA	0.265
CAATAGTC	-0.201
GTGGACTA	0.0449
GGCAGGCA	-0.0704
CCTCAAGC	-0.0712
AAGCGGTG	-0.14
CAAATAAA	0.0228
GTGCGGGA	0.274
ACGCGCCT	-0.0629
ACGCGCAG	-0.177
GAAATCGC	0.214
AACTGTTC	0.109
CCCCCTAG	-0.34
AATCCAGC	0.0196
GATACCCC	0.112
ACTCATCT	-0.155
CAATTCGG	0.256
CTGGAGAA	-0.141

Sequence	PBM E-score
AGCCCCAA	-0.262
CCACACTA	0.0795
CCTATGTC	-0.112
CTGAATAC	-0.153
TCATGCAA	-0.0524
CAGAAAAG	-0.0399
AAATCTCC	0.246
AAGTCGAT	-0.119
CAGATAGG	-0.159
AGCGATAC	-0.242
AACTCACT	-0.397
CGGCTAGC	0.0612
TCCCCGCA	0.323
GGCCAAAC	0.106
AGTCTTGG	-0.14
CATTGGCA	-0.208
CACATCGA	-0.191
AAGAACAT	0.0106
CAAAGTTG	-0.232
AAGGGGAT	-0.0327
ATATTCGC	0.0699
GTCCGAGA	0.416

Sequence	PBM E-score
CGGGAGGC	0.064
ATTGGATC	0.0248
TGGTACAA	-0.355
ACTAATCC	0.0875
TATTATGA	-0.239
GCCTGCCC	-0.063
AACCGCGG	0.305
CTGAGTTA	-0.248
AAGCGCCT	0.0348
GAGGGCCC	0.0735
CACTTTGA	-0.207
CGAATTTA	0.0471
GCAATGTA	-0.0559
ACCCCTGC	-0.127
TAGGCATA	-0.212
GCATTGGC	-0.233
AGAGCGAT	-0.186
ATCTCAGG	-0.0988
AGCCAACA	-0.169
ACCAAAGC	0.0231

Source: the supplement of paper PMC3334620
